# From paper PMC12820563, “FoxP3 forms a head-to-head dimer in vivo and stabilizes its multimerization on adjacent microsatellites”
# The list shows a part of the results.
# Target: T1, MBP-FoxP1dN (Mus musculus, UniProt P58462 326-579)
# T1 sequence: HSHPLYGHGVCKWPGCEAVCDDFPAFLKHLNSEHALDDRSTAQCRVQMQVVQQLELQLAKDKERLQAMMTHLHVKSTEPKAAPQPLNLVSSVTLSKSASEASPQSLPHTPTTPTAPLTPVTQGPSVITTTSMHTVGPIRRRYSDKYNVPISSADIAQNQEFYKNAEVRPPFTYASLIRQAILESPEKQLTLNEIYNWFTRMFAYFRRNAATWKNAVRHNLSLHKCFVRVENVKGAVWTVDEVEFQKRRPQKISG
# Assay: PD-seq (MBP pull-down with sequencing); 20 mM Tris-HCl pH 7.5, 100 mM NaCl, 1.5 mM MgCl2, 0.4 uM protein, 0.1 uM dsDNA library, 30 min, room temperature, amylose pull-down; high values mean tight binding
# Conditions: protein: recombinant; tags: His6-MBP; chain copies: 2; dsDNA, one strand shown
# Procedure, shortened: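 Binding is the reads-per-million enrichment of pull-down relative to input, pooled across replicates. For this, 0.4 µM His6-MBP-tagged mouse FoxP3 or FoxP1 fragment lacking the N-terminus, made in E. coli, was incubated with 0.1 µM Klenow-filled double-stranded degenerate DNA library for 30 min at room temperature in Tris pH 7.5 buffer with NaCl and MgCl2. Complexes bound to amylose resin were washed three times before proteinase K released the DNA for PCR barcoding and Illumina sequencing.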
row,Sequence,binding signal
1,GATGATTGTTCTCCCAGCTGATGAATTGACTCGCTCGAGTAAACAAATTTTCCTAATCTTTCTGTTCAAGCGCCATCTAC,0.934 RPM ratio (pull-down/input)
2,GATGATTGTTCTCCCAGCTGATGAATTAGCTCAATCGAGTAAACAAATTTTCCTAATCTTTCTGTTCAAGCGCCATCTAC,0.99 RPM ratio (pull-down/input)
3,GATGATTGTTCTCCCAGCTGATGAATTCTATAGATCGAGTAAACAAATTTTCCTAATCTTTCTGTTCAAGCGCCATCTAC,0.873 RPM ratio (pull-down/input)
4,GATGATTGTTCTCCCAGCTGATGAATTCGAAGTTTCGAGTAAACAAATTTTCCTAATCTTTCTGTTCAAGCGCCATCTAC,0.876 RPM ratio (pull-down/input)
5,GATGATTGTTCTCCCAGCTGATGAATTCAGAAGTTCGAGTAAACAAATTTTCCTAATCTTTCTGTTCAAGCGCCATCTAC,0.836 RPM ratio (pull-down/input)
6,GATGATTGTTCTCCCAGCTGATGAATTCTACATATCGAGTAAACAAATTTTCCTAATCTTTCTGTTCAAGCGCCATCTAC,1.02 RPM ratio (pull-down/input)
7,GATGATTGTTCTCCCAGCTGATGAATTTCTATAATCGAGTAAACAAATTTTCCTAATCTTTCTGTTCAAGCGCCATCTAC,1.1 RPM ratio (pull-down/input)
8,GATGATTGTTCTCCCAGCTGATGAATTAATCATCTCGAGTAAACAAATTTTCCTAATCTTTCTGTTCAAGCGCCATCTAC,0.993 RPM ratio (pull-down/input)
9,GATGATTGTTCTCCCAGCTGATGAATTTAGCATGTCGAGTAAACAAATTTTCCTAATCTTTCTGTTCAAGCGCCATCTAC,0.99 RPM ratio (pull-down/input)
10,GATGATTGTTCTCCCAGCTGATGAATTCTAGGTATCGAGTAAACAAATTTTCCTAATCTTTCTGTTCAAGCGCCATCTAC,0.911 RPM ratio (pull-down/input)
11,GATGATTGTTCTCCCAGCTGATGAATTCGGGTTGTCGAGTAAACAAATTTTCCTAATCTTTCTGTTCAAGCGCCATCTAC,0.917 RPM ratio (pull-down/input)
12,GATGATTGTTCTCCCAGCTGATGAATTCAGAAAGTCGAGTAAACAAATTTTCCTAATCTTTCTGTTCAAGCGCCATCTAC,0.853 RPM ratio (pull-down/input)
13,GATGATTGTTCTCCCAGCTGATGAATTCACAGGCTCGAGTAAACAAATTTTCCTAATCTTTCTGTTCAAGCGCCATCTAC,0.804 RPM ratio (pull-down/input)
14,GATGATTGTTCTCCCAGCTGATGAATTGCCTGTTTCGAGTAAACAAATTTTCCTAATCTTTCTGTTCAAGCGCCATCTAC,1.04 RPM ratio (pull-down/input)
15,GATGATTGTTCTCCCAGCTGATGAATTTATTCCCTCGAGTAAACAAATTTTCCTAATCTTTCTGTTCAAGCGCCATCTAC,1.02 RPM ratio (pull-down/input)
16,GATGATTGTTCTCCCAGCTGATGAATTACGCATATCGAGTAAACAAATTTTCCTAATCTTTCTGTTCAAGCGCCATCTAC,1.21 RPM ratio (pull-down/input)

row,Sequence,binding signal
1,GATGATTGTTCTCCCAGCTGATGAATTGCTGATCTCGAGTAAACAAATTTTCCTAATCTTTCTGTTCAAGCGCCATCTAC,1.03 RPM ratio (pull-down/input)
2,GATGATTGTTCTCCCAGCTGATGAATTCAACCCATCGAGTAAACAAATTTTCCTAATCTTTCTGTTCAAGCGCCATCTAC,0.915 RPM ratio (pull-down/input)
3,GATGATTGTTCTCCCAGCTGATGAATTTTCATACTCGAGTAAACAAATTTTCCTAATCTTTCTGTTCAAGCGCCATCTAC,0.974 RPM ratio (pull-down/input)
4,GATGATTGTTCTCCCAGCTGATGAATTTCTCTTGTCGAGTAAACAAATTTTCCTAATCTTTCTGTTCAAGCGCCATCTAC,0.879 RPM ratio (pull-down/input)
5,GATGATTGTTCTCCCAGCTGATGAATTCGCCTCATCGAGTAAACAAATTTTCCTAATCTTTCTGTTCAAGCGCCATCTAC,0.874 RPM ratio (pull-down/input)
6,GATGATTGTTCTCCCAGCTGATGAATTCGGTACCTCGAGTAAACAAATTTTCCTAATCTTTCTGTTCAAGCGCCATCTAC,0.82 RPM ratio (pull-down/input)
7,GATGATTGTTCTCCCAGCTGATGAATTACCTAGCTCGAGTAAACAAATTTTCCTAATCTTTCTGTTCAAGCGCCATCTAC,0.978 RPM ratio (pull-down/input)
8,GATGATTGTTCTCCCAGCTGATGAATTATTGATCTCGAGTAAACAAATTTTCCTAATCTTTCTGTTCAAGCGCCATCTAC,1.39 RPM ratio (pull-down/input)
9,GATGATTGTTCTCCCAGCTGATGAATTGTCGCTTTCGAGTAAACAAATTTTCCTAATCTTTCTGTTCAAGCGCCATCTAC,1.17 RPM ratio (pull-down/input)
10,GATGATTGTTCTCCCAGCTGATGAATTTTGGGTATCGAGTAAACAAATTTTCCTAATCTTTCTGTTCAAGCGCCATCTAC,0.985 RPM ratio (pull-down/input)
11,GATGATTGTTCTCCCAGCTGATGAATTCTCTTTCTCGAGTAAACAAATTTTCCTAATCTTTCTGTTCAAGCGCCATCTAC,0.806 RPM ratio (pull-down/input)
12,GATGATTGTTCTCCCAGCTGATGAATTCAGGAGCTCGAGTAAACAAATTTTCCTAATCTTTCTGTTCAAGCGCCATCTAC,0.716 RPM ratio (pull-down/input)
13,GATGATTGTTCTCCCAGCTGATGAATTTGCATGTTCGAGTAAACAAATTTTCCTAATCTTTCTGTTCAAGCGCCATCTAC,1.09 RPM ratio (pull-down/input)
14,GATGATTGTTCTCCCAGCTGATGAATTACCTGTCTCGAGTAAACAAATTTTCCTAATCTTTCTGTTCAAGCGCCATCTAC,0.946 RPM ratio (pull-down/input)
15,GATGATTGTTCTCCCAGCTGATGAATTGAACCCATCGAGTAAACAAATTTTCCTAATCTTTCTGTTCAAGCGCCATCTAC,0.829 RPM ratio (pull-down/input)
